# Laboratory results reported in the supplement of paper PMC8728848.
# The list shows a part of the results.
# Key:
# Assay in all cases: glycan array binding signal (z-score within array); higher = stronger binding
# Details in all cases: glycan notation: IUPAC condensed, linker removed
# [1] = molecular target: Fuc(a1-2)Gal
# Procedure, shortened: (§1)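 Columns mapping to the same glycan were averaged after glycan names were converted to IUPAC-condensed notation. The data come from 3228 arrays in the Consortium for Functional Glycomics database, limited to those with an available protein sequence. Binding is reported as a within-array Z-score averaged across arrays of one protein sequence and across linkers.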
# [2] = molecular target: Fuc(a1-2)Gal(b1-3)GalNAc
# Procedure, shortened: as §1
# [3] = molecular target: Fuc(a1-2)Gal(b1-3)GalNAc(a1-3)[Fuc(a1-2)]Gal(b1-4)Glc
# Procedure, shortened: as §1
# [4] = molecular target: Fuc(a1-2)Gal(b1-3)GalNAc(a1-3)[Fuc(a1-2)]Gal(b1-4)GlcNAc
# Procedure, shortened: as §1
# [5] = molecular target: Fuc(a1-2)Gal(b1-3)GalNAc(b1-3)Gal
# Procedure, shortened: as §1
# [6] = molecular target: Fuc(a1-2)Gal(b1-3)GalNAc(b1-3)Gal(a1-4)Gal(b1-4)Glc
# Procedure, shortened: as §1
# [7] = molecular target: Fuc(a1-2)Gal(b1-3)GalNAc(b1-4)[Neu5Ac(a2-3)]Gal(b1-4)Glc
# Procedure, shortened: as §1
# [8] = molecular target: Fuc(a1-2)Gal(b1-3)GlcNAc
# Procedure, shortened: as §1
# [9] = molecular target: Fuc(a1-2)Gal(b1-3)GlcNAc(b1-2)Man(a1-3)[Fuc(a1-2)Gal(b1-3)GlcNAc(b1-2)Man(a1-6)]Man(b1-4)GlcNAc(b1-4)GlcNAc
# Procedure, shortened: as §1
# [10] = molecular target: Fuc(a1-2)Gal(b1-3)GlcNAc(b1-2)Man(a1-3)[Fuc(a1-2)Gal(b1-3)GlcNAc(b1-2)Man(a1-6)]Man(b1-4)GlcNAc(b1-4)[Fuc(a1-6)]GlcNAc
# Procedure, shortened: as §1
# [11] = molecular target: Fuc(a1-2)Gal(b1-3)GlcNAc(b1-3)Gal(b1-4)Glc
# Procedure, shortened: as §1
# [12] = molecular target: Fuc(a1-2)Gal(b1-3)GlcNAc(b1-3)GalNAc
# Procedure, shortened: as §1
# [13] = molecular target: Fuc(a1-2)Gal(b1-3)GlcNAc(b1-3)[Fuc(a1-2)Gal(b1-3)GlcNAc(b1-6)]GalNAc
# Procedure, shortened: as §1
# [14] = molecular target: Fuc(a1-2)Gal(b1-3)GlcNAc(b1-3)[Gal(b1-4)GlcNAc(b1-6)]Gal(b1-4)Glc
# Procedure, shortened: as §1
# [15] = molecular target: Fuc(a1-2)Gal(b1-3)GlcNAc(b1-3)[Neu5Ac(a2-6)Gal(b1-4)GlcNAc(b1-6)]Gal(b1-4)Glc
# Procedure, shortened: as §1
# [16] = molecular target: Fuc(a1-2)Gal(b1-3)GlcNAc6S
# Procedure, shortened: as §1
# [17] = molecular target: Fuc(a1-2)Gal(b1-3)[Fuc(a1-4)]GlcNAc
# Procedure, shortened: as §1
# [18] = molecular target: Fuc(a1-2)Gal(b1-3)[Fuc(a1-4)]GlcNAc(b1-2)Man(a1-3)[Fuc(a1-2)Gal(b1-3)[Fuc(a1-4)]GlcNAc(b1-2)Man(a1-3)]Man(b1-4)GlcNAc(b1-4)GlcNAc
# Procedure, shortened: as §1
# [19] = molecular target: Fuc(a1-2)Gal(b1-3)[Fuc(a1-4)]GlcNAc(b1-2)Man(a1-3)[Fuc(a1-2)Gal(b1-3)[Fuc(a1-4)]GlcNAc(b1-2)Man(a1-6)]Man(b1-4)GlcNAc(b1-4)[Fuc(a1-6)]GlcNAc(b1-4)[Fuc(a1-6)]GlcNAc
# Procedure, shortened: as §1
# [20] = molecular target: Fuc(a1-2)Gal(b1-3)[Fuc(a1-4)]GlcNAc(b1-3)[Fuc(a1-3)[Gal(b1-4)]GlcNAc(b1-6)]Gal(b1-4)Glc
# Procedure, shortened: as §1
# [21] = molecular target: Fuc(a1-2)Gal(b1-3)[Fuc(a1-4)]GlcNAc(b1-3)[Gal(b1-4)GlcNAc(b1-6)]Gal(b1-4)Glc
# Procedure, shortened: as §1
# [22] = molecular target: Fuc(a1-2)Gal(b1-4)Fuc(a1-3)]GlcNAc(b1-2)Man(a1-3)[Fuc(a1-2)Gal(b1-4)[Fuc(a1-3)]GlcNAc(b1-2)Man(a1-6)]Man(b1-4)GlcNAc(b1-4)GlcNAc
# Procedure, shortened: as §1
# [23] = molecular target: Fuc(a1-2)Gal(b1-4)Glc
# Procedure, shortened: as §1
# [24] = molecular target: Fuc(a1-2)Gal(b1-4)Glc6S
# Procedure, shortened: as §1
# [25] = molecular target: Fuc(a1-2)Gal(b1-4)GlcNAc
# Procedure, shortened: as §1
# [26] = molecular target: Fuc(a1-2)Gal(b1-4)GlcNAc(b1-2)Man
# Procedure, shortened: as §1
# [27] = molecular target: Fuc(a1-2)Gal(b1-4)GlcNAc(b1-2)Man(a1-3)[Fuc(a1-2)Gal(b1-4)GlcNAc(b1-2)Man(a1-6)]Man(b1-4)GlcNAc(b1-4)GlcNAc
# Procedure, shortened: as §1
# [28] = molecular target: Fuc(a1-2)Gal(b1-4)GlcNAc(b1-2)Man(a1-3)[Fuc(a1-2)Gal(b1-4)GlcNAc(b1-2)Man(a1-6)]Man(b1-4)GlcNAc(b1-4)[Fuc(a1-6)]GlcNAc
# Procedure, shortened: as §1
# [29] = molecular target: Fuc(a1-2)Gal(b1-4)GlcNAc(b1-2)[Fuc(a1-2)Gal(b1-4)GlcNAc(b1-4)]Man(a1-3)[Fuc(a1-2)Gal(b1-4)GlcNAc(b1-2)Man(a1-6)]Man(b1-4)GlcNAc(b1-4)GlcNAc
# Procedure, shortened: as §1
# [30] = molecular target: Fuc(a1-2)Gal(b1-4)GlcNAc(b1-3)Gal(b1-4)GlcNAc
# Procedure, shortened: as §1
binder,measurement,setting,value
"LgFlo1 (Saccharomyces pastorianus), B3IUA8 (protein) SGSTQACLPVGSRKNGMNVNFYKYSLQDSTTYSDPQYMAYKYSDTKKLGSVSGQTHLSIYYGPNTAFWNTASWSSDLFGFYTTPTNVTVEMTGYFLPPQTGSYTFKFATVDDSAILSVGGSIAFECCAQEQPPITSTDFTINGIKPWDAATPTDIKGSTYMYAGYYYPIKIVYSNAKALARLPVSVVLPDGTEVNDDFEGYVYSFDDDLSQSNCTIPDPSKHTTS",glycan array binding signal (z-score),[1],-0.217
same,glycan array binding signal (z-score),[2],-0.337
same,glycan array binding signal (z-score),[3],0.192
same,glycan array binding signal (z-score),[4],-0.253
same,glycan array binding signal (z-score),[5],-0.431
same,glycan array binding signal (z-score),[6],-0.346
same,glycan array binding signal (z-score),[7],-0.164
same,glycan array binding signal (z-score),[8],-0.247
same,glycan array binding signal (z-score),[9],2.1
same,glycan array binding signal (z-score),[10],3.52
same,glycan array binding signal (z-score),[11],0.983
same,glycan array binding signal (z-score),[12],-0.113
same,glycan array binding signal (z-score),[13],-0.108
same,glycan array binding signal (z-score),[14],0.26
same,glycan array binding signal (z-score),[15],0.445
same,glycan array binding signal (z-score),[16],-0.336
same,glycan array binding signal (z-score),[17],-0.312
same,glycan array binding signal (z-score),[18],0.923
same,glycan array binding signal (z-score),[19],0.604
same,glycan array binding signal (z-score),[20],-0.235
same,glycan array binding signal (z-score),[21],-0.051
same,glycan array binding signal (z-score),[22],4.98
same,glycan array binding signal (z-score),[23],-0.137
same,glycan array binding signal (z-score),[24],-0.286
same,glycan array binding signal (z-score),[25],-0.338
same,glycan array binding signal (z-score),[26],-0.253
same,glycan array binding signal (z-score),[27],0.925
same,glycan array binding signal (z-score),[28],0.313
same,glycan array binding signal (z-score),[29],-0.119
same,glycan array binding signal (z-score),[30],-0.363
